# Some of the results follow.
# B1: PX14343H-pdi-506-26-506 (Parabacteroides distasonis) (protein)
# chain: QPTGTMTTDSKLTSKESALALTNSAYLKNTVFNKMTPGWGCNTILLLEYMTGKATSENSQSNYKDFQDLLVSDRSLYIEDWWQDCYAGIANCNLALQKLGEFENLDASLVNGYMAEVKFMRALYYFYLVRIFGDVPKITTVQSELGELQVSRAPVKEIYDEIIIPDLLEAEQSDLAFSDHTGRVSMGAVKALLADVYLTYAGYPLQGGKSYYAESAKRSLEVIKSNEYTLFTDYESLRLPSQNNKGEFIYQVQFSLNKRHNESVRIFLPSRSGISAYDLEYGSLIPTKEFVESFEKGDKRTEEKQYFFTNYKGHPSKFSPGAAELEFMDLNGYYIYKFFDQVAVDNTAKSDLNWSVYRYTDVLLMYAEAQVNADGTPNQQSIDIVNQIRGRAGLAPFKQTNASAFLEEVWDQRYFDLCYENKMWFDMLRTRKIRDDKSGEYVDFIGYKTNWGKVYTETQLLFPIPLSERQANPNLTQNQGY
# Columns and labels:
# Test in all cases: glycan array binding signal (z-score within array); higher = stronger binding
# Settings in all cases: glycan notation: IUPAC condensed, linker removed
# [1] = target: Gal(b1-4)GlcNAc(b1-6)GalNAc
# Outline: (§1)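 From the Consortium for Functional Glycomics database, 3228 arrays were curated, keeping only those whose protein sequence was available. Binding is given as a within-array Z-score averaged across arrays sharing a protein sequence and across linkers. Negative Z-scores can be read as non-binding.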
# [2] = target: Gal(b1-4)GlcNAc(b1-6)[Gal(b1-3)]GalNAc
# Outline: as §1
# [3] = target: Gal(b1-4)GlcNAc(b1-6)[Gal(b1-4)GlcNAc(b1-3)]GalNAc
# Outline: as §1
# Gal(b1-4)GlcNAc6P = target: Gal(b1-4)GlcNAc6P
# Outline: as §1
# Gal(b1-6)Gal = target: Gal(b1-6)Gal
# Outline: as §1
# Gal3S(b1-3)GalNAc = target: Gal3S(b1-3)GalNAc
# Outline: as §1
# Gal3S(b1-3)GlcNAc = target: Gal3S(b1-3)GlcNAc
# Outline: as §1
# [4] = target: Gal3S(b1-3)[Fuc(a1-4)]GlcNAc
# Outline: as §1
# Gal3S(b1-4)Glc = target: Gal3S(b1-4)Glc
# Outline: as §1
# Gal3S(b1-4)Glc6S = target: Gal3S(b1-4)Glc6S
# Outline: as §1
# Gal3S(b1-4)GlcNAc = target: Gal3S(b1-4)GlcNAc
# Outline: as §1
# [5] = target: Gal3S(b1-4)[Fuc(a1-3)]Glc6S
# Outline: as §1
# [6] = target: Gal3S(b1-4)[Fuc(a1-3)]GlcNAc
# Outline: as §1
# [7] = target: Gal3S(b1-4)[Fuc(a1-3)]GlcNAc6S
# Outline: as §1
# Gal3S4S(b1-4)GlcNAc = target: Gal3S4S(b1-4)GlcNAc
# Outline: as §1
# Gal3S6S(b1-4)GlcNAc = target: Gal3S6S(b1-4)GlcNAc
# Outline: as §1
# Gal3S6S(b1-4)GlcNAc6S = target: Gal3S6S(b1-4)GlcNAc6S
# Outline: as §1
# Gal4S(b1-4)GlcNAc = target: Gal4S(b1-4)GlcNAc
# Outline: as §1
# Gal4S6S(b1-4)GlcNAc = target: Gal4S6S(b1-4)GlcNAc
# Outline: as §1
# Gal6P(b1-4)GlcNAc = target: Gal6P(b1-4)GlcNAc
# Outline: as §1
# Gal6S(b1-3)GlcNAc = target: Gal6S(b1-3)GlcNAc
# Outline: as §1
# Gal6S(b1-3)GlcNAc6S = target: Gal6S(b1-3)GlcNAc6S
# Outline: as §1
# Gal6S(b1-4)Glc = target: Gal6S(b1-4)Glc
# Outline: as §1
# Gal6S(b1-4)Glc6S = target: Gal6S(b1-4)Glc6S
# Outline: as §1
# Gal6S(b1-4)GlcNAc = target: Gal6S(b1-4)GlcNAc
# Outline: as §1
# Gal6S(b1-4)GlcNAc6S = target: Gal6S(b1-4)GlcNAc6S
# Outline: as §1
# GalNAc(a1-3)Gal = target: GalNAc(a1-3)Gal
# Outline: as §1
# GalNAc(a1-3)GalNAc = target: GalNAc(a1-3)GalNAc
# Outline: as §1
# [8] = target: GalNAc(a1-3)GalNAc(b1-3)Gal(a1-4)Gal(b1-4)Glc
# Outline: as §1
# [9] = target: GalNAc(a1-3)GalNAc(b1-3)Gal(a1-4)Gal(b1-4)GlcNAc
# Outline: as §1
# GalNAc(b1-3)Gal = target: GalNAc(b1-3)Gal
# Outline: as §1
# [10] = target: GalNAc(b1-3)Gal(a1-4)Gal(b1-4)GlcNAc
# Outline: as §1
# [11] = target: GalNAc(b1-3)Gal(a1-4)Gal(b1-4)GlcNAc(b1-3)Gal(b1-4)Glc
# Outline: as §1
# [12] = target: GalNAc(b1-3)Gal(a1-6)Gal(b1-4)Glc
# Outline: as §1
# GalNAc(b1-3)GalNAc = target: GalNAc(b1-3)GalNAc
# Outline: as §1
# GalNAc(b1-3)GlcNAc = target: GalNAc(b1-3)GlcNAc
# Outline: as §1
# GalNAc(b1-4)Gal(b1-4)Glc = target: GalNAc(b1-4)Gal(b1-4)Glc
# Outline: as §1
# GalNAc(b1-4)GlcNAc = target: GalNAc(b1-4)GlcNAc
# Outline: as §1
binder,measurement,setting,value
B1,glycan array binding signal (z-score),[1],-0.235
same,glycan array binding signal (z-score),[2],-0.08
same,glycan array binding signal (z-score),[3],2.17
same,glycan array binding signal (z-score),Gal(b1-4)GlcNAc6P,-0.427
same,glycan array binding signal (z-score),Gal(b1-6)Gal,-0.379
same,glycan array binding signal (z-score),Gal3S(b1-3)GalNAc,-0.491
same,glycan array binding signal (z-score),Gal3S(b1-3)GlcNAc,-0.402
same,glycan array binding signal (z-score),[4],-0.34
same,glycan array binding signal (z-score),Gal3S(b1-4)Glc,-0.199
same,glycan array binding signal (z-score),Gal3S(b1-4)Glc6S,-0.412
same,glycan array binding signal (z-score),Gal3S(b1-4)GlcNAc,-0.235
same,glycan array binding signal (z-score),[5],0.527
same,glycan array binding signal (z-score),[6],-0.317
same,glycan array binding signal (z-score),[7],0.077
same,glycan array binding signal (z-score),Gal3S4S(b1-4)GlcNAc,-0.293
same,glycan array binding signal (z-score),Gal3S6S(b1-4)GlcNAc,-0.11
same,glycan array binding signal (z-score),Gal3S6S(b1-4)GlcNAc6S,-0.303
same,glycan array binding signal (z-score),Gal4S(b1-4)GlcNAc,-0.394
same,glycan array binding signal (z-score),Gal4S6S(b1-4)GlcNAc,-0.505
same,glycan array binding signal (z-score),Gal6P(b1-4)GlcNAc,-0.375
same,glycan array binding signal (z-score),Gal6S(b1-3)GlcNAc,-0.521
same,glycan array binding signal (z-score),Gal6S(b1-3)GlcNAc6S,-0.293
same,glycan array binding signal (z-score),Gal6S(b1-4)Glc,0.262
same,glycan array binding signal (z-score),Gal6S(b1-4)Glc6S,0.667
same,glycan array binding signal (z-score),Gal6S(b1-4)GlcNAc,1.27
same,glycan array binding signal (z-score),Gal6S(b1-4)GlcNAc6S,-0.324
same,glycan array binding signal (z-score),GalNAc(a1-3)Gal,1.07
same,glycan array binding signal (z-score),GalNAc(a1-3)GalNAc,-0.058
same,glycan array binding signal (z-score),[8],-0.378
same,glycan array binding signal (z-score),[9],-0.484
same,glycan array binding signal (z-score),GalNAc(b1-3)Gal,0.069
same,glycan array binding signal (z-score),[10],-0.287
same,glycan array binding signal (z-score),[11],-0.107
same,glycan array binding signal (z-score),[12],-0.047
same,glycan array binding signal (z-score),GalNAc(b1-3)GalNAc,0.076
same,glycan array binding signal (z-score),GalNAc(b1-3)GlcNAc,-0.219
same,glycan array binding signal (z-score),GalNAc(b1-4)Gal(b1-4)Glc,0.09
same,glycan array binding signal (z-score),GalNAc(b1-4)GlcNAc,-0.039

# Source: the supplement of paper PMC8728848
